# Assay results reported in PubChem BioAssay AID602310 (National Center for Advancing Translational Sciences (NCATS), 2012).
# “And” between values parts separate entries of the source, which are not always exact repeats. Equal values may be shown once. In all, about 410,000 compounds went through this assay and about 310 (0.076%) were called active. The inconclusive results got no clear call from the source; some entries with a clear call stand among them for comparison. Calls follow the shape of the dose curve; as a rule, active = well fitted curve in the direction sought with a large enough effect; inconclusive = small, poorly fitted or top-dose-only effect; inactive = flat fitted curve, though single readings scatter. Where the call is inconclusive, the potency comes from a doubtful curve fit.
# Molecular target: DNA dC->dU-editing enzyme APOBEC-3G (Homo sapiens) (UniProt Q9HC16)
# Experiment: qHTS for Inhibitors of Vif-A3G Interactions: qHTS; also: nearly all actives have a fitted effect of over 60% in size;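 as to activity, negative = active: hits raise eYFP signal because A3G escapes Vif-driven loss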
# Conditions: HeLa A3G-eYFP + Vif (tagged APOBEC3G with the HIV-1 protein that degrades it), YFP fluorescence, overnight; series mostly up to 46.1 µM; activity, negative = active: at the top concentration
# Procedure, shortened: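 Read-out is eYFP fluorescence (Ex 488/Em 500-530) from Vif-expressing HeLa A3G-eYFP cells; more signal means A3G escaped Vif-mediated degradation. Cells plated overnight, compound pinned in, incubated overnight at 37 deg C.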
# % is scaled to controls: 0 for no effect and ±100 for the full control effect; potency is read from the fitted curve at half-maximal effect; tags tell the direction and shape of the fitted curve.
# UniProt Q9HC16, sequence (Q9HC16 whole entry, looked up): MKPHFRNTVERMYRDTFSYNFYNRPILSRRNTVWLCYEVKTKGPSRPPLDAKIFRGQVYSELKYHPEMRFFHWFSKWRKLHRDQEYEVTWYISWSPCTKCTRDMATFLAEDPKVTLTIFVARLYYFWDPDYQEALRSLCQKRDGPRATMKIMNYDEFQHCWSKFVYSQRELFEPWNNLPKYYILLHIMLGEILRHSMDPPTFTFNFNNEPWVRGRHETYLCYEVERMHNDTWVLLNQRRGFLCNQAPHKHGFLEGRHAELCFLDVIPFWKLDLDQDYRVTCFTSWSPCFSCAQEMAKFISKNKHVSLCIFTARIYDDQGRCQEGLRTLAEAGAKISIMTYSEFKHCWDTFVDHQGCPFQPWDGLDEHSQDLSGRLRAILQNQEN
Compound,"activity, negative = active",Potency
COc1cccc(O)c1CN1CCC(C(=O)Nc2ccc(-c3cccc(C)c3)cc2)CC1,inactive: -22.7%,
Cc1nc(NCCc2ccccc2)sc1C(=O)N(C)C,inactive: -2.74%,
Oc1ccc(/C=N/NC(=S)N/N=C/c2ccc(O)cc2)cc1,,"inconclusive: 22.4 µM [inhibitor, single point]"
COc1cc(S(=O)(=O)Nc2ccccc2N2CCCCC2)ccc1NC(C)=O,,"inconclusive: 7.94 µM [inhibitor, partial curve]"
O=C1C(Cl)=C(Oc2ccccc2)C(=O)c2ccccc21,,"inconclusive: 11.2 µM [inhibitor, partial curve, poor fit]"
Cc1c2ccccc2nc2c(F)c(NCCO)c(F)c(F)c12,,"inconclusive: 22.4 µM [inhibitor, single point]"
COc1ccccc1N1C(=O)N(C(C)=O)C2C1Nc1ccccc1N2C (stereo not drawn),,"inconclusive: 14.1 µM [inhibitor, partial curve, poor fit]"
Nc1ncc(Br)cc1S(=O)(=O)NCCC(=O)NC1CCCCC1,inactive: 1.72%,
c1ccc(-c2csc3nnc(SCc4ccc5c(c4)OCO5)n23)cc1,inactive: 1.59%,
COc1cc(CNC(C)c2ccccc2)cc(Br)c1OCc1ccc(F)cc1 (stereo not drawn),,"inconclusive: 35.5 µM [inhibitor, single point]"
CC(CCc1ccccc1)NC(=O)COC(=O)c1ccc(S(C)(=O)=O)c([N+](=O)[O-])c1 (stereo not drawn),inactive: -21.6%,
Cc1noc(/C=C/c2nn(C)cc2Cl)c1[N+](=O)[O-],,"inconclusive: 12.6 µM [inhibitor, single point]"
Cc1ccc(C)c(N2CCN(C(=O)c3cccn4c(=O)c5sccc5nc34)CC2)c1,,"inconclusive: 10 µM [inhibitor, partial curve]"
COc1ccc(CNC(=O)CSc2nc(-c3ccc(OC)c(OC)c3)cc(C(F)(F)F)n2)cc1,inactive: -1.36%,
COc1ccc(C2=NCC(CSc3nnnn3C)S2)cc1 (stereo not drawn),,"inconclusive: 25.1 µM [inhibitor, single point]"
COc1ccccc1N1CCN(c2ccc(-c3ccccc3)nn2)CC1,,"inconclusive: 1.41 µM [inhibitor, full curve, poor fit]"
CN(C)/C=C(\C#N)S(=O)(=O)C(C)(C)C,inactive: 0.63%,
c1ccc(CN2CCN(C3=Nc4cccc5cccc3c45)CC2)cc1,inactive: 0.263%,
CN(C)c1ccc(/C=C/c2ccc3cc(N(C)C)ccc3n2)cc1,,"inconclusive: 12.6 µM [inhibitor, partial curve]"
C=CCn1c(SCc2c(C)noc2C)nc2cc(C(=O)O)ccc2c1=O,,"inconclusive: 7.94 µM [inhibitor, partial curve, poor fit]"
Cc1ccc(NC(=O)c2cc(C)n(-c3cccc(C)c3)c2C)cc1,inactive: -4.68%,
NC(N)=NN=C(c1ccc(F)cc1)c1ccc(C(F)(F)F)cc1,,"inconclusive: 1.41 µM [inhibitor, full curve, poor fit]"
CC(=O)/C(N=Nc1nc2c([nH]1)c(=O)n(C)c(=O)n2C)=C(\C)O,inactive: 0.18%,

Compound,"activity, negative = active",Potency
Cc1cc(C)nc(SCc2ccc(C(=O)N/N=C/c3cccc(O)c3O)cc2)n1,,"inconclusive: 22.4 µM [inhibitor, partial curve, poor fit]"
Cc1ccc(-c2cc(NC=O)c3ncc(-c4cccc(C(=O)N(C)C)c4)n3c2)cc1,,"inconclusive: 17.8 µM [inhibitor, partial curve, poor fit]"
COC(=O)c1ccc(N=C2S/C(=C\c3cc(C)n(-c4cccnc4)c3C)C(=O)N2C)cc1,inactive: -2.01%,
COc1ccccc1NC(=O)C1CCN(C(=O)c2sc3nc[nH]c(=O)c3c2C)CC1,inactive: 0.705%,
CCCc1nnc(NC(=O)c2nc(S(=O)(=O)Cc3cccc(C)c3)ncc2Cl)s1,,"inconclusive: 22.4 µM [inhibitor, single point]"
CCCC12CN3CC(CCC)(CN(C1)C3c1ccccc1)C2=O (stereo not drawn),inactive: -0.799%,
Cc1cccc(NC(=O)CN2C(=O)S/C(=C\c3ccc(O)c([N+](=O)[O-])c3)C2=O)c1,inactive: 2.27%,
Cc1cccc(-n2c(C)cc(/C=C3\C(=N)N4N=C(CC(C)C)SC4=NC3=O)c2C)c1,inactive: -0.0635%,
CN(C)C(=O)c1cccc(-c2cccc(-c3nc(C(=O)NCc4ccccc4)cc4c3[C@@H](CCO)N(S(=O)C(C)(C)C)C4)c2)c1 (stereo partly drawn),,"inconclusive: 22.4 µM [inhibitor, single point]"
COc1cccc(-c2nc(NCC3CCCO3)c3ccccc3n2)c1O (stereo not drawn),inactive: -6.99%,
Cc1ccccc1/C=N/Nc1ccnc2cc(Cl)ccc12,,"inconclusive: 35.5 µM [inhibitor, single point]"
CCOC(=O)/C(=C\c1cccnc1)C(=O)c1cc(C(C)=O)c(Nc2ccccc2)s1,,"inconclusive: 2.82 µM [inhibitor, full curve, poor fit]"
N=C1SC(CC(=O)Nc2ccc([N+](=O)[O-])cc2)C(=O)N1c1ccccc1 (stereo not drawn),inactive: -0.947%,
Cc1nc([N+](=O)[O-])c(Br)n1Cc1ccc(Cl)c(Cl)c1,,"inconclusive: 35.5 µM [inhibitor, single point]"
CC(C)C[C@H]1CN([C@@H](Cc2ccccc2)CN2CCC[C@@H]2CN2C(=O)C(=O)NC[C@@H]2Cc2ccccc2)C(=O)C(=O)N1CCc1ccccc1,,"inconclusive: 35.5 µM [inhibitor, single point]"
Cc1cccc(/C(N)=N/OC(=O)N2CCOCC2)c1,,"inconclusive: 25.1 µM [inhibitor, single point]"
COC/C=C/C1=CC2=CC(=O)C(C)(OC(=O)c3cnc4ccccc4n3)C(=O)C2=CN1c1ccccc1 (stereo not drawn),,"inconclusive: 11.2 µM [inhibitor, partial curve, poor fit]"
Cc1ccccc1NC(=O)c1nc(S(C)(=O)=O)ncc1Cl,,"inconclusive: 31.6 µM [inhibitor, single point]"
CCOc1ccc(N(C)c2ccc(/C=C3/SC(=S)NC3=O)cc2)cc1,,"inconclusive: 17.8 µM [inhibitor, partial curve, poor fit]"
Cc1ccc2c(/C=C/c3c[nH]c4ccccc34)ccnc2c1C,,active: 11.2 µM
NC(=S)n1[nH]c(-c2ccc([N+](=O)[O-])cc2)c(N=Nc2cccc([N+](=O)[O-])c2)c1=O,inactive: -10%,
Cc1cc(C(C)(C)C)cc(C)c1C[n+]1ccc2ccccc2c1,inactive: -0.916%,
COc1ccc2c(c1)c(C(=O)N/N=C/c1ccc(Br)cc1)c(C)n2C,,"inconclusive: 7.08 µM [inhibitor, partial curve]"

Compound,"activity, negative = active",Potency
CCOc1ccc(OCc2cccc(C(=O)Nc3ccc(CN4CCCCC4)cc3)c2)cc1,,"inconclusive: 35.5 µM [inhibitor, partial curve, poor fit]"
Cc1cc(=S)[nH]c2ccccc12,,"inconclusive: 5.01 µM [inhibitor, single point]"
O=C1/C(=C\c2ccc([N+](=O)[O-])cc2)CS(=O)(=O)C/C1=C/c1ccc([N+](=O)[O-])cc1,,"inconclusive: 6.31 µM [inhibitor, single point]"
CCOC(=O)c1cnc2cc(C(F)(F)F)ccc2c1N1CCN(c2cccc(Cl)c2)CC1,inactive: 1.62%,
S=C(NNc1ccnc2cc(Cl)ccc12)Nc1ccc(Cl)cc1Cl,inactive: -5.88%,
COc1cc(C(=O)NCCOc2cc(C)cc(C)c2)c(Br)c(OC)c1OC,,"inconclusive: 10 µM [inhibitor, partial curve]"
O=C(NCCCN=C1NS(=O)(=O)c2ccccc21)c1ccc(S(=O)(=O)N2CCCCC2)cc1,,"inconclusive: 25.1 µM [inhibitor, single point]"
Cc1cc(C)n(-c2cc(Cl)ccc2[N+](=O)[O-])n1,inactive: 1.64%,
Cc1ccc(NC(=O)c2ccccc2NS(=O)(=O)c2ccc(Cl)s2)cc1S(=O)(=O)N1CCOCC1,inactive: -2.22%,
COc1ccc(/C=N/NC(=O)c2cccc([N+](=O)[O-])c2)cc1O,,"inconclusive: 22.4 µM [inhibitor, single point]"
O=C(c1cccc(N2CCCC2=O)c1)N1CCN(c2cccc(Cl)c2)CC1,,"inconclusive: 5.62 µM [inhibitor, full curve]"
COc1ccc(/C=N/NC(=O)c2ccc(N)cc2)cc1Cn1cc([N+](=O)[O-])cn1,,"inconclusive: 2.51 µM [inhibitor, partial curve, poor fit]"
O=C(CNc1ccc(C(F)(F)F)cc1)Nc1cccc(S(=O)(=O)N2CCCC2)c1,inactive: -1.21%,
Cc1ccc2c(/C=C/c3ccc(N(C)C)cc3)c(C)cnc2c1,inactive: -16.5%,
CC(C)(C)c1csc(NC(=O)Cn2cnc3ccccc3c2=O)n1,inactive: -3.3%,
Cn1cc(C2=C(c3ccc(Cl)cc3Cl)C(=O)NC2=O)c2ccccc21,,"inconclusive: 3.16 µM [inhibitor, partial curve, poor fit] and inconclusive: 2.82 µM [inhibitor, full curve, poor fit]"
COc1ccc(-c2c(-c3cc(OC)c(OC)c(OC)c3)noc2C)cn1,,"inconclusive: 1.26 µM [inhibitor, full curve, poor fit] and inconclusive: 1.12 µM [inhibitor, full curve]"
COCc1cc(O)c(O)c(O)c1-c1c(COC)cc(O)c(O)c1O,inactive: 1.4%,
c1ccc2c(c1)nnn2Cc1nnc2sc(-c3ccc4c(c3)OCCO4)nn12,inactive: 2.45%,
N=c1c(C(=O)NCCc2ccccc2)cc2c(=O)n3ccccc3nc2n1Cc1ccco1,inactive: 2.03%,
O=C(O)/C=C/C(=O)c1c(-c2ccccc2)[nH]c2ccccc12,,"inconclusive: 22.4 µM [inhibitor, single point]"
COc1ccc(-c2cc(C(F)(F)F)nc(S(C)(=O)=O)n2)cc1,,"inconclusive: 35.5 µM [inhibitor, single point]"
